# Measurements reported in the supplement of paper PMC8728848.
# This is one part of the list.
# B1: CrataBL (Crataeva tapia), C0HJA4 (protein)
# chain: AILTGVPYYILPSTSRAGFSPDNLRKNTSQLSCPLDLITQLRFPRRIGVPVIFTPQNSSLKVVPLSHNLNIHTCSDLWFCPESKIWTVKSSLTHGGSVVTTGGTFRSLGSWFRIERHGDSYKLVHCPRGSTPCRDVGIETVGGGGRRYLAPRDRPLAVRFTRASG
# Key:
# Test in all cases: glycan array binding signal (z-score within array); higher = stronger binding
# Settings in all cases: glycan notation: IUPAC condensed, linker removed
# [1] = target: Fuc(a1-2)Gal(b1-4)[Fuc(a1-3)]GlcNAc
# How it was run: (§1)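 Glycan array data were curated from 3228 arrays in the Consortium for Functional Glycomics database and kept only where the protein sequence was available. Glycan names were converted to IUPAC-condensed notation, and columns mapping to the same glycan were averaged. The binding signal is a within-array Z-score, averaged across arrays of the same protein sequence at different concentrations or buffers and across linkers. Negative Z-scores can be read as non-binding.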
# [2] = target: Fuc(a1-2)Gal(b1-4)[Fuc(a1-3)]GlcNAc(b1-2)Man(a1-3)[Fuc(a1-2)Gal(b1-4)[Fuc(a1-3)]GlcNAc(b1-2)Man(a1-6)]Man(b1-4)GlcNAc(b1-4)[Fuc(a1-6)]GlcNAc
# How it was run: as §1
# [3] = target: Fuc(a1-2)Gal(b1-4)[Fuc(a1-3)]GlcNAc(b1-2)[Fuc(a1-2)Gal(b1-4)[Fuc(a1-3)]GlcNAc(b1-4)]Man(a1-3)[Fuc(a1-2)Gal(b1-4)[Fuc(a1-3)]GlcNAc(b1-2)Man(a1-6)]Man(b1-4)GlcNAc(b1-4)GlcNAc
# How it was run: as §1
# [4] = target: Fuc(a1-2)Gal(b1-4)[Fuc(a1-3)]GlcNAc(b1-3)Gal(b1-4)[Fuc(a1-3)]GlcNAc
# How it was run: as §1
# [5] = target: Fuc(a1-2)Gal(b1-4)[Fuc(a1-3)]GlcNAc(b1-3)Gal(b1-4)[Fuc(a1-3)]GlcNAc(b1-3)Gal(b1-4)[Fuc(a1-3)]GlcNAc
# How it was run: as §1
# [6] = target: Fuc(a1-2)Gal(b1-4)[Fuc(a1-3)]GlcNAc(b1-3)GalNAc
# How it was run: as §1
# [7] = target: Fuc(a1-2)Gal(b1-4)[Fuc(a1-3)]GlcNAc(b1-3)[Neu5Ac(a2-6)Gal(b1-4)GlcNAc(b1-6)]Gal(b1-4)Glc
# How it was run: as §1
# [8] = target: Fuc(a1-2)Gal3S(b1-4)GlcNAc
# How it was run: as §1
# [9] = target: Fuc(a1-2)Gal6S(b1-3)GlcNAc
# How it was run: as §1
# [10] = target: Fuc(a1-2)Gal6S(b1-3)GlcNAc6S
# How it was run: as §1
# Fuc(a1-2)Gal6S(b1-4)Glc = target: Fuc(a1-2)Gal6S(b1-4)Glc
# How it was run: as §1
# [11] = target: Fuc(a1-2)Gal6S(b1-4)Glc6S
# How it was run: as §1
# Fuc(a1-2)[Gal(a1-3)]Gal = target: Fuc(a1-2)[Gal(a1-3)]Gal
# How it was run: as §1
# [12] = target: Fuc(a1-2)[Gal(a1-3)]Gal(b1-3)GalNAc
# How it was run: as §1
# [13] = target: Fuc(a1-2)[Gal(a1-3)]Gal(b1-3)GalNAc(b1-3)Gal(a1-4)Gal(b1-4)Glc
# How it was run: as §1
# [14] = target: Fuc(a1-2)[Gal(a1-3)]Gal(b1-3)GlcNAc
# How it was run: as §1
# [15] = target: Fuc(a1-2)[Gal(a1-3)]Gal(b1-3)GlcNAc(b1-2)Man(a1-3)[Fuc(a1-2)[Gal(a1-3)]Gal(b1-3)GlcNAc(b1-2)Man(a1-6)]Man(b1-4)GlcNAc(b1-4)GlcNAc
# How it was run: as §1
# [16] = target: Fuc(a1-2)[Gal(a1-3)]Gal(b1-3)GlcNAc(b1-2)Man(a1-3)[Fuc(a1-2)[Gal(a1-3)]Gal(b1-3)GlcNAc(b1-2)Man(a1-6)]Man(b1-4)GlcNAc(b1-4)[Fuc(a1-6)]GlcNAc
# How it was run: as §1
# [17] = target: Fuc(a1-2)[Gal(a1-3)]Gal(b1-3)GlcNAc(b1-3)GalNAc
# How it was run: as §1
# [18] = target: Fuc(a1-2)[Gal(a1-3)]Gal(b1-3)GlcNAc(b1-6)GalNAc
# How it was run: as §1
# [19] = target: Fuc(a1-2)[Gal(a1-3)]Gal(b1-4)Glc
# How it was run: as §1
# [20] = target: Fuc(a1-2)[Gal(a1-3)]Gal(b1-4)GlcNAc
# How it was run: as §1
# [21] = target: Fuc(a1-2)[Gal(a1-3)]Gal(b1-4)GlcNAc(b1-2)Man
# How it was run: as §1
# [22] = target: Fuc(a1-2)[Gal(a1-3)]Gal(b1-4)GlcNAc(b1-2)Man(a1-3)[Fuc(a1-2)[Gal(a1-3)]Gal(b1-4)GlcNAc(b1-2)Man(a1-6)]Man(b1-4)GlcNAc(b1-4)GlcNAc
# How it was run: as §1
# [23] = target: Fuc(a1-2)[Gal(a1-3)]Gal(b1-4)GlcNAc(b1-2)Man(a1-3)[Fuc(a1-2)[Gal(a1-3)]Gal(b1-4)GlcNAc(b1-2)Man(a1-6)]Man(b1-4)GlcNAc(b1-4)[Fuc(a1-6)]GlcNAc
# How it was run: as §1
# [24] = target: Fuc(a1-2)[Gal(a1-3)]Gal(b1-4)GlcNAc(b1-3)GalNAc
# How it was run: as §1
# [25] = target: Fuc(a1-2)[Gal(a1-3)]Gal(b1-4)GlcNAc(b1-3)[Fuc(a1-2)[Gal(a1-3)]Gal(b1-4)GlcNAc(b1-6)]GalNAc
# How it was run: as §1
# [26] = target: Fuc(a1-2)[Gal(a1-3)]Gal(b1-4)GlcNAc(b1-6)GalNAc
# How it was run: as §1
# [27] = target: Fuc(a1-2)[Gal(a1-3)]Gal(b1-4)[Fuc(a1-3)]Glc
# How it was run: as §1
# [28] = target: Fuc(a1-2)[Gal(a1-3)]Gal(b1-4)[Fuc(a1-3)]GlcNAc
# How it was run: as §1
# [29] = target: Fuc(a1-2)[Gal(a1-3)]Gal(b1-4)[Fuc(a1-3)]GlcNAc(b1-3)GalNAc
# How it was run: as §1
# [30] = target: Fuc(a1-2)[Gal(a1-4)]Gal(b1-4)GlcNAc
# How it was run: as §1
# [31] = target: Fuc(a1-2)[GalNAc(a1-3)]Gal
# How it was run: as §1
# [32] = target: Fuc(a1-2)[GalNAc(a1-3)]Gal(b1-3)GalNAc(a1-3)[Fuc(a1-2)]Gal(b1-4)GlcNAc
# How it was run: as §1
# [33] = target: Fuc(a1-2)[GalNAc(a1-3)]Gal(b1-3)GalNAc(b1-3)Gal(a1-4)Gal(b1-4)Glc
# How it was run: as §1
# [34] = target: Fuc(a1-2)[GalNAc(a1-3)]Gal(b1-3)GlcNAc
# How it was run: as §1
# [35] = target: Fuc(a1-2)[GalNAc(a1-3)]Gal(b1-3)GlcNAc(b1-2)Man(a1-3)[Fuc(a1-2)[GalNAc(a1-3)]Gal(b1-3)GlcNAc(b1-2)Man(a1-6)]Man(b1-4)GlcNAc(b1-4)GlcNAc
# How it was run: as §1
# [36] = target: Fuc(a1-2)[GalNAc(a1-3)]Gal(b1-3)GlcNAc(b1-2)Man(a1-3)[Fuc(a1-2)[GalNAc(a1-3)]Gal(b1-3)GlcNAc(b1-2)Man(a1-6)]Man(b1-4)GlcNAc(b1-4)[Fuc(a1-6)]GlcNAc
# How it was run: as §1
binder,measurement,setting,value
B1,glycan array binding signal (z-score),[1],-0.238
same,glycan array binding signal (z-score),[2],-0.206
same,glycan array binding signal (z-score),[3],-0.469
same,glycan array binding signal (z-score),[4],-0.232
same,glycan array binding signal (z-score),[5],-0.275
same,glycan array binding signal (z-score),[6],0.222
same,glycan array binding signal (z-score),[7],-0.412
same,glycan array binding signal (z-score),[8],-0.465
same,glycan array binding signal (z-score),[9],-0.412
same,glycan array binding signal (z-score),[10],5.81
same,glycan array binding signal (z-score),Fuc(a1-2)Gal6S(b1-4)Glc,0.184
same,glycan array binding signal (z-score),[11],0.194
same,glycan array binding signal (z-score),Fuc(a1-2)[Gal(a1-3)]Gal,-0.315
same,glycan array binding signal (z-score),[12],0.084
same,glycan array binding signal (z-score),[13],-0.222
same,glycan array binding signal (z-score),[14],-0.442
same,glycan array binding signal (z-score),[15],-0.5
same,glycan array binding signal (z-score),[16],-0.374
same,glycan array binding signal (z-score),[17],-0.481
same,glycan array binding signal (z-score),[18],-0.276
same,glycan array binding signal (z-score),[19],-0.296
same,glycan array binding signal (z-score),[20],-0.479
same,glycan array binding signal (z-score),[21],-0.355
same,glycan array binding signal (z-score),[22],-0.064
same,glycan array binding signal (z-score),[23],-0.461
same,glycan array binding signal (z-score),[24],-0.341
same,glycan array binding signal (z-score),[25],-0.094
same,glycan array binding signal (z-score),[26],-0.324
same,glycan array binding signal (z-score),[27],-0.501
same,glycan array binding signal (z-score),[28],-0.409
same,glycan array binding signal (z-score),[29],-0.054
same,glycan array binding signal (z-score),[30],-0.024
same,glycan array binding signal (z-score),[31],-0.415
same,glycan array binding signal (z-score),[32],-0.174
same,glycan array binding signal (z-score),[33],-0.082
same,glycan array binding signal (z-score),[34],-0.225
same,glycan array binding signal (z-score),[35],-0.542
same,glycan array binding signal (z-score),[36],-0.508
